# This is one part of the list.
# T1: UNK ZnF1-3 (human, UniProt Q9C0B0 31-174)
# T1 sequence: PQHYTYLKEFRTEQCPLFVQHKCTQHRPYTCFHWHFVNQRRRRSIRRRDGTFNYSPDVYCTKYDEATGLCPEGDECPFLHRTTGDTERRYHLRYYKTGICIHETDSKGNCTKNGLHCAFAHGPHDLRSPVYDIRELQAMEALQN
# B1: chr7:54823571:54823572:-_ENSG00000132432_ENST00000352861|hu_mus|hu_hu_hu_mus_False|1_28 (ssRNA)
# RNA: GGGAGUUCUACAGUCCGACGAUCUCCCAUGAUAGCAAAUCCUAUAGCUGUAGCCAUGGCAAUCUUCUGGAAUUCUUUUCUGUCGGGUUUGGUGCAUCUUUUAACCAGCCGAAUGGAGUCCUUUACAAACUGCCGGCUUGGCUCCAACAGAGGAUUGAGCAUCA
# B2: chr11:46405157:46405158:+_ENSG00000110492_ENST00000395566|hu_hu|hu_hu_hu_mus_False|58_58 (ssRNA)
# RNA: GGGAGUUCUACAGUCCGACGAUCCCCUCCCCACUUUGGGCACUUGGUGUGGGCGUGAGAGGACAGGCGUGAUUGACAAAGCUAACGGGAAGACAAAAGGCACUGGUGGGUUAUAUCUUGGGCCUGUGGGAGAGGAGGGCUCCGCAACAGAGGAUUGAGCAUCA
# B3: chr2:115689334:115689335:-_ENSMUSG00000027210_ENSMUST00000074285|mus_mus|motif|central (ssRNA)
# RNA: GGGAGUUCUACAGUCCGACGAUCGCUCUUUGAAGAACAGUCCCCCAAAAUCAUAAUAAGAAUUGGCUUAUGAAGCACAAACGGUAAAGAUCUGUUUGAAACUAAAGGACACAUGGACGGGGGGAACAAAGGCCGGGCAUGAAACAACAGAGGAUUGAGCAUCA
# B4: chr1:163117127:163117128:-_ENSG00000143248_ENST00000313961|hu_mus|hu_hu_hu_mus_False|98_108 (ssRNA)
# RNA: GGGAGUUCUACAGUCCGACGAUCUGCGGGUUAUUAUGGAGGAAAUAUCACAGGGCAACUUUUGGAAGCCUGACCAGAUGACUACUUGAUUAGCUCCUUAUAAAAUUCAGAGCGCACAAAGCGGGGCAGAGAAUCCUUCUCCAUCAACAGAGGAUUGAGCAUCA
# B5: 139256783_139256903_4521_3pUTR_ENSG00000064393_ENST00000406875|human|control|control (ssRNA)
# RNA: GGGAGUUCUACAGUCCGACGAUCCUACUAGGGUGUCUGUGACGACCGCUAGCCCUACGCUACGCGACUAGGGGUGGAUUCAAAGAGAAAAUACAUUUUCAGAAAAGAAAAAAACCUAAAGUUUGCAACACACAUUAUUAAUGACAACAGAGGAUUGAGCAUCA
# B6: chr3:176767854:176767855:-_ENSG00000177565_ENST00000430069|hu_hu|hu_hu_hu_mus_False|38_68 (ssRNA)
# RNA: GGGAGUUCUACAGUCCGACGAUCGACAUCCUUGUUACUGGGCACGUCCUGCCCUCCUUCCCGUAUGCAAUGUCUAAGCACGAGCUGCGUAGGGCCACUGGUGCUGUUCUCACUGAGGUUCCAGAUUCUUGCCGUGGAGUCUCCCAACAGAGGAUUGAGCAUCA
# B7: chr2:160605324:160605325:+_ENSG00000136536_ENST00000409591|hu_mus|FALSE|FALSE (ssRNA)
# RNA: GGGAGUUCUACAGUCCGACGAUCUCUUGAAGGUGCACUUUUAGCUUUAUCAUUUUUCCCAUCAGUUGAAUUCCAACCAGAAGGAAUAAUAUCUACAGUAAUCAUGACAUUGUCAGCCAGAUUACUGCCGAGUGCUGGUGGGACCAACAGAGGAUUGAGCAUCA
# B8: chr4:56736951:56736952:+_ENSG00000090989_ENST00000381295|hu_mus|FALSE|FALSE (ssRNA)
# RNA: GGGAGUUCUACAGUCCGACGAUCGUUGCUCUCAGAGAUCUGAUCCAUCUGCUCUUUCACACUUUGGAGCAUCUCCUCGUAACUGCUCAGUUUCAGUUCAAUCUGGUCCACCUCCGUUAGCGCCUCAUCCAGCAACUGCAUCAGCAACAGAGGAUUGAGCAUCA
# B9: chr10:1038518:1038519:+_ENSG00000107937_ENST00000545048|hu_hu|hu_hu_hu_mus_False|48_58 (ssRNA)
# RNA: GGGAGUUCUACAGUCCGACGAUCCAGUCUGUCAUGGUAAUUCUGUUGAGUAAAUUUGACUUUUCUCAUAUAAAAAUGUCUAAUGCGAUGUAUUUGGUAAUGUUUAUGAAUAACCGUUGGAGUCUUUCGUUGAGUCUUGGAUAACAACAGAGGAUUGAGCAUCA
# B10: chr6:52671308:52671309:+_ENSMUSG00000004535_ENSMUST00000080723|mus_mus|FALSE|FALSE (ssRNA)
# RNA: GGGAGUUCUACAGUCCGACGAUCCCACAUUUUGAAAGAUGACAUGGGCAAAAUUGGAAGUCUGCAAUUGGACUUCUUGAAAGGAUGUCAUUGUGAAUCGGUCAGGGCCUCCGCCCCGCACGCUACGCCGCGCCCCGAACCUCCCAACAGAGGAUUGAGCAUCA
# B11: chr4:148554787:148554788:-_ENSMUSG00000063077_ENSMUST00000060537|mus_hu|FALSE|FALSE (ssRNA)
# RNA: GGGAGUUCUACAGUCCGACGAUCUCUCAGCACAAGAAAAAAGAAAAGAGUACAGAGCAAUGGAGAUGGGGAACGGGAGAGCUAGAAAAGUGCUGGACAAGGAGGGAGAAGUAGUUAAGCCACAGGAUUACAUACAAGAGUCACCAACAGAGGAUUGAGCAUCA
# B12: 118884368_118884488_153_3pUTR_ENSMUSG00000025577_ENSMUST00000026662|mouse|control|control (ssRNA)
# RNA: GGGAGUUCUACAGUCCGACGAUCGAGCCGCUUGCUCAGGAUGCACUCGGCGGCGAAGACCUGCUCGCCCACGCUGCUCAGCUCCUCCAUGCCGCCGCCCGCCGCGGCCCGCGCCCCGCAGACCCCGGCUCACUGCUGCACACACAACAGAGGAUUGAGCAUCA
# B13: chr11:9430111:9430112:+_ENSG00000205339_ENST00000379719|hu_hu|FALSE|FALSE (ssRNA)
# RNA: GGGAGUUCUACAGUCCGACGAUCAUGGAUAAUGGCUUCUACAAUAUUUUCUCGAAUACAAUGGCGAUCUUCUUCUGGAAUAGUAUAAGGGGAUAUAUCCCCUGGUGCUGUUUCUCGAUCAGGCCAAUACUGUGUUAUCAUAUUCAACAGAGGAUUGAGCAUCA
# B14: chr2:31460152:31460153:+_ENSMUSG00000026843_ENSMUST00000055244|mus_mus|motif|central (ssRNA)
# RNA: GGGAGUUCUACAGUCCGACGAUCGUUCUGGAUCUUCUUAAUCAUUUCUCCGUUCCUUCCUAUGACAAUCCCAACAACAAACCGGGGCACAGACACCUCUAUACUACCUCCGCCUGCUCGGGAGGUGAAAUCGCUGCGCACACCCAACAGAGGAUUGAGCAUCA
# Biological target: T1, UNK ZnF1-3
# Assay: nsRBNS (natural sequence RNA bind-n-seq); RBNS binding buffer (assumed for nsRBNS): 25 mM Tris pH 7.5, 150 mM KCl, 3 mM MgCl2, 0.01% Triton X-100, 500 ug/ml BSA, 20 U/ml SUPERase-In, 4 C; UNK is unkempt and MSI1 is Musashi-1; names of the RNAs are library labels; protein concentration not given here; high values mean tight binding
row,Binder,binding signal
1,B1,0.717 enrichment R
2,B2,2.82 enrichment R
3,B3,2.16 enrichment R
4,B4,1.56 enrichment R
5,B5,0.996 enrichment R
6,B6,0.588 enrichment R
7,B7,0.628 enrichment R
8,B8,0.946 enrichment R
9,B9,0.645 enrichment R
10,B10,1.14 enrichment R
11,B11,3.09 enrichment R
12,B12,0.711 enrichment R
13,B13,0.974 enrichment R
14,B14,0.837 enrichment R
